Reference: PubChem BioAssay AID624296 (National Center for Advancing Translational Sciences (NCATS), 2012)
About 9,900 (2.8%) of roughly 350,000 compounds were called active. This list was built around the results that the source calls inconclusive (neither active nor inactive); the mix of calls is not that of the screen. Calls come from the whole dose curve; as a rule, active = well fitted activation curve with a large enough effect; inconclusive = small, poorly fitted or top-dose-only effect; inactive = no such curve, though single readings can be large or run the other way. No potency is given beside an inconclusive call; the fits are too rough.

Experiment: A quantitative high throughput screen for small molecules that induce DNA re-replication in MCF 10a normal breast cells. For activity, positive = re-replication: % of control where 0% means no effect. Note: nearly all actives have a fitted effect of over 50% in size.
Settings: MCF 10A DNA re-replication, Hoechst nuclear intensity, 48 h; activity, positive = re-replication: at 46.1 µM (top of the series)
Potency is the fitted concentration of half-maximal effect; tags give direction and shape of the fitted curve.

| Structure (SMILES) | Potency | activity, positive = re-replication |
| --- | --- | --- |
| Cc1cc(C)c(C)c(S(=O)(=O)N2CCC(C(=O)N3CC(C)CC(C)C3)CC2)c1C (stereo unspecified) | inconclusive [activator, single point] |  |
| COc1ccccc1CNC(=O)COC(=O)C1CCN(S(=O)(=O)c2ccc(C)c(C)c2)CC1 |  | inactive: 6.92% |
| O=C(CC1SC(=O)N(c2ccccc2)C1=O)Nc1ccc(Br)cc1 (stereo unspecified) |  | inactive: 1.75% |
| CC[C@]12c3[nH]c4cc(CCC(=O)N(C)C)ccc4c3CCN1C(=O)[C@@H](CC(=O)NCCCN(C)C)C[C@@H]2C(=O)N1CCN(C(=O)c2ccco2)CC1 |  | inactive: -34.4% |
| CCOC(=O)N1CCN(C(=O)c2ccc(N3C(=O)c4ccccc4C3=O)cc2)CC1 | inconclusive [activator, partial curve, poor fit] |  |
| Cc1ccc(-c2nn(C)c(=O)c3ccccc23)cc1S(=O)(=O)NCCO | inconclusive [activator, full curve, poor fit] |  |
| CCOC(=O)c1ccc(NC(=O)c2c(NC(=O)CCC(=O)O)sc3c2CCCCC3)cc1 | inconclusive [activator, partial curve, poor fit] |  |
| O=C(Nc1ccccn1)c1cc(-c2ccc(Cl)s2)nc2ccccc12 | active: 20.6 µM |  |
| Cc1ccc(C)c(-c2csc(N)c2C(=O)OC(C)C)c1 | inconclusive [activator, single point] |  |
| O=C(CCN1CCN(c2ccccc2)CC1)Nc1ccc2c(c1)OCO2 |  | inactive: 2.88% |
| O=C(O)c1ccc(/C=C(\c2nc3ccccc3[nH]2)c2nc3ccccc3s2)cc1 | inconclusive [activator, single point] |  |
| Cc1cccc(N2CCN(Cc3cn(C)nc3-c3ccccc3F)CC2)n1 | active: 7.31 µM |  |
| C/C(=N\NC(=O)c1c([N+](=O)[O-])c(C)nn1C)c1ccc(NC(=O)C2CCCC2)cc1 | active: 0.411 µM |  |
| O=C(NCC(=O)N1CCN(S(=O)(=O)c2ccccc2)CC1)c1ccc2ccccc2c1 |  | inactive: 6.99% |
| CC(C)n1c(SCC(=O)NCc2ccco2)nc2c1c(=O)n(C)c(=O)n2C | active: 16.4 µM |  |
| OCCNCC(O)Cn1ccc2ccccc21 (stereo unspecified) | inconclusive [activator, partial curve, poor fit] |  |
| CCn1nc(C)c(CN2CCCC(CNS(=O)(=O)c3ccc(OC)cc3)C2)c1C (stereo unspecified) |  | inactive: 7.64% |
| CCCCCCCn1c2c(c(=N)c3c1CCC3)CCCC2 | inconclusive [activator, full curve, poor fit] |  |
| O=C(Nc1ccc(Cl)cc1)c1cccc(NC2=NC3CS(=O)(=O)CC3S2)c1 (stereo unspecified) |  | inactive: -0.888% |
| Cc1ccc(C(=O)N/C(=C\c2ccccc2)C(=O)NCCN2CCOCC2)cc1 |  | inactive: -3.24% |
| CN(C)CCN(C(=O)/C=C/c1cccs1)c1nc2ccc(Br)cc2s1 | inconclusive [activator, single point] |  |
| CC(=O)c1ccc(OC(C)C)c(CSC(=N)N)c1 | inconclusive [activator, full curve, poor fit] |  |

| Structure (SMILES) | Potency | activity, positive = re-replication |
| --- | --- | --- |
| CCn1c(C)nc2cc(C(=O)NN=Cc3ccccc3OC(F)F)ccc21 | inconclusive [activator, single point] |  |
| O=C(O)c1ccc(CN2C(=O)c3cccc4c([N+](=O)[O-])ccc(c34)C2=O)cc1 | active: 5.8 µM |  |
| CC(=O)c1c(C)[nH]c(C(=O)N2CCCC(C)C2)c1C (stereo unspecified) |  | inactive: 9.22% |
| CC(C)C(NS(=O)(=O)c1cccc2nsnc12)C(=O)N1CCc2ccccc2C1 (stereo unspecified) |  | inactive: -2.48% |
| CC1CCC(C(C)C)C(OC(=O)Cn2c(-c3ccccc3)[n+](C)c3ccccc32)C1 (stereo unspecified) | active: 18.4 µM |  |
| O=C(Cn1sc2ccccc2c1=O)NC12CC3CC(CC(C3)C1)C2 | inconclusive [activator, single point] |  |
| COCCCNC(=O)c1cc2c(s1)CS(=O)(=O)C2 | inconclusive [activator, single point] |  |
| CC1=C(C(=O)OC(C)C)C(c2ccccc2)NC(=S)N1C (stereo unspecified) |  | inactive: -0.77% |
| c1ccc2c(NC3C4CC5CC(C4)CC3C5)nc(N3CCOCC3)nc2c1 (stereo unspecified) | inconclusive [activator, single point] |  |
| O=C(NCc1cc2ccccc2[nH]1)C1CCC(=O)N(CCCN2CCCC2=O)C1 (stereo unspecified) |  | inactive: -1.78% |
| COC(=O)c1c(NC(C)=O)sc2c1CCCCC2 |  | inactive: -1.38% |
| COCCn1c(C)cc(C2=NNC(=Nc3ccccc3)SC2)c1C |  | inactive: 9.93% |
| COc1ccc(C(=O)Nc2nc(-c3cccs3)c(NC(C)=O)s2)cc1 | inconclusive [activator, partial curve, poor fit] |  |
| CCOc1ccc(-c2nnc(SCC(=O)N3CCNC3=O)o2)cc1 | inconclusive [activator, single point] |  |
| COc1cc(/C=C2\SC(=Nc3ccccc3)N(CCc3c[nH]c4ccccc34)C2=O)ccc1OC(C)C(=O)O (stereo unspecified) | inconclusive [activator, single point] |  |
| O=C(c1ccccc1)c1ccc(N2CCOCC2)c(NC(=O)c2ccco2)c1 | inconclusive [activator, partial curve, poor fit] |  |
| CCC(CC)COC(=O)C1=C(C)NC(=O)NC1c1ccccc1Br (stereo unspecified) | inconclusive [activator, single point] |  |
| Cc1ccc(CNC(=O)c2ccc3c(=O)n(CC4CCCO4)c(=S)[nH]c3c2)cc1 (stereo unspecified) | inconclusive [activator, single point] |  |
| COc1ccc(CCNc2oc(COc3ccccc3Cl)nc2C#N)cc1OC | inconclusive [activator, single point] |  |
| Cc1cc(C(=O)N/N=C/c2ccc(-c3cccc(Br)c3)o2)n[nH]1 | inconclusive [activator, single point] |  |
| Cc1cccc(NC(=O)Cc2coc3ccc4ccccc4c23)n1 | inconclusive [activator, single point] |  |
| CC(C)(C)c1ccc(S(=O)(=O)N2CCN(CC(=O)NC(=O)NC3CCCCC3)CC2)cc1 | inconclusive [activator, partial curve, poor fit] |  |

| Structure (SMILES) | Potency | activity, positive = re-replication |
| --- | --- | --- |
| COc1ccc(NC(=S)c2ccc3ccccc3n2)cc1 |  | inactive: -22.3% |
| Cc1cccc(N2CCN(CC(O)COc3ccc4ccccc4c3)CC2)c1 (stereo unspecified) |  | inactive: 1.37% |
| Cc1ccc(-c2nn(-c3ccccc3)cc2C=O)o1 | inconclusive [activator, single point] |  |
| CCOC(=O)C(NC(=O)Nc1ccc(F)cc1F)(Oc1ccc(F)cc1)C(F)(F)F (stereo unspecified) | inconclusive [activator, single point] |  |
| COc1ccc(Br)cc1CN(C)CC(=O)Nc1cc(Cl)cc(Cl)c1 | inconclusive [activator, single point] |  |
| COc1cccc(NC(=O)Nc2cccn(Cc3ccc(C)cc3)c2=O)c1 | inconclusive [activator, single point] |  |
| Cc1cc(/C(O)=C2\C(=O)C(=O)N(CCN(C)C)C2c2ccncc2)ccc1OCc1ccccc1 (stereo unspecified) |  | inactive: -2.41% |
| CCOc1ccc(-c2nnn(CC(=O)Nc3ccccc3OC)n2)cc1OCC | inconclusive [activator, single point] |  |
| COc1cc(NC(=O)c2cccc([N+](=O)[O-])c2)ccc1NC(=O)c1cc2ccccc2o1 | inconclusive [activator, partial curve, poor fit] |  |
| Cc1ccc(OC(=O)c2oc3ccc(F)cc3c2C)c(C)c1 | inconclusive [activator, single point] |  |
| Cc1oc2c(C)c3oc(=O)c(CCC(=O)N4C[C@H]5C[C@@H](C4)c4cccc(=O)n4C5)c(C)c3cc2c1C | inconclusive [activator, full curve, poor fit] |  |
| CCc1sc(C(=O)NCc2ccco2)cc1Br | inconclusive [activator, single point] |  |
| CCc1cccc(CC)c1NC(=S)/C(=C(\[O-])c1ccc(Cl)s1)[n+]1ccccc1 |  | inactive: -36% [at 9.22 µM] |
| O=C(/C=C/c1ccc(Cl)c(Cl)c1)NCc1ccco1 | inconclusive [activator, partial curve, poor fit] |  |
| CCC(C)Nc1nc(Cl)nc(N(C#N)CN2C(=O)c3ccccc3S2(=O)=O)n1 (stereo unspecified) | inconclusive [activator, single point] |  |
| CC1CCCN(S(=O)(=O)c2ccc3[nH]c4c(c3c2)CCCC4)C1 (stereo unspecified) | inconclusive [activator, partial curve, poor fit] |  |
| CC1=NN(C(N)=S)C(=O)C1N=Nc1ccc([N+](=O)[O-])cc1 (stereo unspecified) | inconclusive [activator, single point] |  |
| c1ccc([C@H]2CN3C(=N2)Sc2ccccc23)cc1 | inconclusive [activator, partial curve, poor fit] |  |
| Cc1cn(-c2cc(C(=O)Nc3ccc(C)c(NC(=O)C(=O)c4c[nH]c5ccccc45)c3)cc(C(F)(F)F)c2)cn1 | inconclusive [activator, single point] |  |
| COc1ccc(CCN(C)C(=O)c2cccc(S(=O)(=O)N3CCN(c4ccc(F)cc4)CC3)c2)cc1OC | inconclusive [activator, partial curve, poor fit] |  |
| O=C(COc1ccc(Cl)cc1)Nc1ccc(NC(=O)c2ccco2)cc1 |  | inactive: -3.22% |
| Cc1c(CC(=O)N[C@@H](C)C(=O)O)c(=O)oc2c(C)c3occ(-c4ccccc4)c3cc12 | inconclusive [activator, partial curve, poor fit] |  |
